The target in the assay is NP-F([change]) (Zaire ebolavirus (strain Mayinga)) (UniProt P18272). As to the kind of experiment: co-IP.

Sequences of proteins named here, by UniProt entry; tags and fusion partners are left off. Residues count along the entry.
UniProt P18272, residues 1-600: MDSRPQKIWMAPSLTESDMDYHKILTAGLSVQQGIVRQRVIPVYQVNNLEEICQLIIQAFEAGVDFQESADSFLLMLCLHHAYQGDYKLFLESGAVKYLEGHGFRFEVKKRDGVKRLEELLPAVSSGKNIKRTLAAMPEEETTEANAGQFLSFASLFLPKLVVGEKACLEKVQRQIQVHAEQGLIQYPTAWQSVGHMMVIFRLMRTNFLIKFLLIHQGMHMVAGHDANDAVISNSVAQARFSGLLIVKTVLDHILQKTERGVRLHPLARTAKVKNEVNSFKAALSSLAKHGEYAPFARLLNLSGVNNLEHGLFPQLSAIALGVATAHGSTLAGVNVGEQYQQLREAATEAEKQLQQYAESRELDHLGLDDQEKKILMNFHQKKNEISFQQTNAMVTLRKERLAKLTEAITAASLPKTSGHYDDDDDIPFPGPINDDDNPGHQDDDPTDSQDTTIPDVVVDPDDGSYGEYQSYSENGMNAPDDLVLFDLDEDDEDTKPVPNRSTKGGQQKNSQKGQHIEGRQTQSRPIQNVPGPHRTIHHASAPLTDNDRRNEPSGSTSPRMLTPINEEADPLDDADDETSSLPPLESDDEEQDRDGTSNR

These are yes or no findings as the source states them, for the method shown. Binding seen in cells or lysates may run through a third protein. Some binding calls cover weakened binding; strength is not graded here.

Data on one molecule can be found in publication PMC6758638.

B1: SET and MYND domain-containing protein 3, endogenous (protein, UniProt Q9H7B4 1-428)
chain: MEPLKVEKFATAKRGNGLRAVTPLRPGELLFRSDPLAYTVCKGSRGVVCDRCLLGKEKLMRCSQCRVAKYCSAKCQKKAWPDHKRECKCLKSCKPRYPPDSVRLLGRVVFKLMDGAPSESEKLYSFYDLESNINKLTEDKKEGLRQLVMTFQHFMREEIQDASQLPPAFDLFEAFAKVICNSFTICNAEMQEVGVGLYPSISLLNHSCDPNCSIVFNGPHLLLRAVRDIEVGEELTICYLDMLMTSEERRKQLRDQYCFECDCFRCQTQDKDADMLTGDEQVWKEVQESLKKIEELKAHWKWEQVLAMCQAIISSNSERLPDINIYQLKVLDCAMDACINLGLLEEALFYGTRTMEPYRIFFPGSHPVRGVQVMKVGKLQLHQGMFPQAMKNLRLAFDIMRVTHGREHSLIEDLILLLEECDANIRAS
For B1, the binding result was “binds”.
